Experimental data taken from PubChem BioAssay (Tox21).
“And” between values parts separate entries of the source, which are not always exact repeats. Equal values may be shown once. Inconclusive results, whose numbers are uncertain, are shown with a selection of clear calls. Potencies of inconclusive entries are doubtful fits and often do not repeat. The source made the active and inactive calls. Calls follow the shape of the dose curve; as a rule, active = well fitted cell-killing curve with a large enough effect in the repeat runs; inconclusive = weak or mixed curves; inactive = no such curve, though single readings can be large or run the other way.
Potency is read from the fitted curve at half-maximal effect; tags tell the direction and shape of the fitted curve.

Assay: qHTS assay to identify small molecule agonists of the peroxisome proliferator-activated receptor delta (PPARd) signaling pathway - cell viability counter screen (AID 743211); also: nearly all actives have a fitted effect of over 55% in size
Details: PPARd-bla HEK293H viability, CellTiter-Glo luminescence, 17 h; series mostly up to 62.6 µM
Description: U.S. Tox21 Program National Center for Advancing Translational Sciences [NCATS] NIH Chemical Genomics Center [NCGC] U.S. Environmental Protection Agency [EPA] National Institutes of Environmental Health Sciences [NIEHS] National Toxicology Program [NTP] U.S. Food and Drug Administration [FDA] Tox21 Assay Overview: The peroxisome proliferator-activated receptors (PPARs) are lipid-activated transcription factors of the nuclear receptor superfamily with three distinct subtypes namely PPAR alpha, PPAR delta (PPARd) and PPAR gamma. All these subtypes heterodimerizes with Retinoid X receptor (RXR) and have different physiological functions. […] To identify the compounds that activate PPAR-delta signaling, GeneBLAzer PPAR delta UAS-bla HEK293H cell line (Invitrogen, Carlsbad, CA, USA) containing a beta-lactamase reporter gene under the control of an Upstream Activator Sequence (UAS) was used to screen the Tox21 compound library. The cytotoxicity of the Tox21 compound library against the PPARd-bla cell line was tested in parallel by measuring the cell viability using CellTiter-Glo assay (Promega, Madison, WI) in the same wells.
Tox21 Assay Protocol Summary: PPARd-bla cells were dispensed at 3000 cells/6uL/well in 1536-well black wall/clear bottom plates using a Multidrop Combi (Thermo Fisher Scientific, Waltham, MA) dispenser. After the assay plates were incubated at 37 C and 5% CO2 for 5 h, 23 nL of compounds dissolved in DMSO, positive controls or DMSO only was transferred to the assay plate by a Pintool station (Kalypsys, San Diego, CA). The assay plates were incubated at 37C for 17 h. After 1 uL of LiveBLAzerTM B/G FRET substrate was added using a Bioraptr Flying Reagent Dispenser (FRD) workstation (Beckman Coulter, Indianapolis, IN, USA), the plates were incubated at room temperature for 2 h, and fluorescence intensity was measured by an Envision plate reader (PerkinElmer, Shelton, CT). For cell viability readout that measures cytotoxicity, 3 ul/well of CellTiter-Glo reagent was added into the assay plates using a Bioraptr FRD. After 30 min incubation at room temperature, the luminescence intensity in the plates was measured using a ViewLux plate reader (PerkinElmer).
With O=C1OC(=O)c2cc([N+](=O)[O-])ccc21 the Potency was “inactive”. In the case of COC(=O)Nc1nc2ccc(C(=O)c3cccs3)cc2[nH]1, the Potency is reported as inconclusive: 4.22 µM [cytotoxic, partial curve]. With NCCOCCOCCN the Potency was inconclusive: 19.5 µM [cytotoxic, partial curve]. With Cc1ccc(N(CC2=NCCN2)c2cccc(O)c2)cc1 the Potency was inconclusive: 33.5 µM [cytotoxic, single point]. For CC(C)=CCOc1ccc(/C=C/C(=O)c2ccc(OCC=C(C)C)cc2OCC(=O)O)cc1, the Potency was active: 29.8 µM. With Clc1ccc(Cl)c(Cl)c1Cl the Potency was inconclusive: 11 µM [cytotoxic, partial curve, poor fit]. In the case of CC(C)(Cc1c[nH]c2ccccc12)NCC(O)COc1ccccc1C#N (stereo not given), the Potency is reported as inconclusive: 26.6 µM [cytotoxic, partial curve]. For CCCOc1ccc2c(c1)CC[C@@H]1[C@@H]2CC[C@]2(C)C(OC)CC[C@@H]12 (stereo not given in full), the Potency was inconclusive: 37.6 µM [cytotoxic, partial curve, poor fit]. For COc1ccc(-n2nc(C(F)F)cc2-c2ccc(S(C)=O)cc2)cc1 (stereo not given), the Potency was inconclusive: 21.9 µM [cytotoxic, single point]. In the case of CO[C@@H]1[C@@H](OC)[C@H](C)[C@@](O)(CC(=O)O)O[C@H]1[C@H](C)[C@H]1O[C@@]2(CC[C@@](C)([C@H]3CC[C@@](C)([C@@H]4O[C@@H]([C@H]5O[C@](C)(O)[C@H](C)C[C@@H]5C)C[C@@H]4OC4C[C@H](OC)[C@@H](OC)[C@H](C)O4)O3)O2)C[C@H](O)[C@H]1C (stereo not given in full), the Potency is reported as active: 2.98 µM. With C[C@@]12CCC[C@H]1[C@@H]1CC[C@H]3C[C@@H](O)CC[C@]3(C)[C@H]1CC2 the Potency was inconclusive: 33.5 µM [cytotoxic, single point]. In the case of Fc1ccc([C@@H]2CCNC[C@H]2COc2ccc3c(c2)OCO3)cc1, the Potency is reported as active: 13.3 µM. For CC(=O)OC1CCC(C(C)(C)C)CC1 (stereo not given), the Potency was inconclusive: 24.3 µM [cytotoxic, partial curve, poor fit]. With CC1C2CC(CC2C2CCCC(O)C2)C1(C)C (stereo not given) the Potency was inconclusive: 54.9 µM [cytotoxic, single point]. In the case of CCc1oc2ccccc2c1C(=O)c1cc(Br)c(O)c(Br)c1, the Potency is reported as inconclusive: 21.1 µM [cytotoxic, partial curve]. For CCC(CN)=C(c1ccccc1)c1ccccc1, the Potency was active: 29.8 µM. In the case of CC(=O)Nc1cccc(N)c1, the Potency is reported as “inactive”. For O=C(O)CNC(=O)c1ccccc1, the Potency was inconclusive: 29.8 µM [rising, single point]. For CC(C)(C)c1csc(-c2cc3cc(OCc4ccccc4CC(=O)O)ccc3o2)n1, the Potency was active: 24.5 µM. For CC1=C(/C=C/C(C)=C/C=C/C(C)=C/CO)C(C)(C)CCC1, the Potency was inconclusive: 49.6 µM [cytotoxic, partial curve] and inconclusive: 51.6 µM [cytotoxic, single point]. For Cc1cc(-c2ccc(N=Nc3cc(S(=O)(=O)O)c4ccccc4c3N)c(C)c2)ccc1N=Nc1cc(S(=O)(=O)O)c2ccccc2c1N, the Potency was inconclusive: 3.11 µM [cytotoxic, partial curve, poor fit]. In the case of N[C@H](C(=O)O)c1ccc(O)cc1, the Potency is reported as “inactive”. In the case of CC(=O)Oc1c(C)c(C)c2c(c1C)CC[C@@](C)(CCC[C@H](C)CCC[C@H](C)CCCC(C)C)O2, the Potency is reported as inconclusive: 54.9 µM [cytotoxic, single point]. With CCOc1ccc2nc3cc(N)ccc3c(N)c2c1 the Potency was inconclusive: 33.5 µM [cytotoxic]. In the case of O=C1[C@H]2CCCC[C@H]2C(=O)N1CCCCN1CCN(c2nsc3ccccc23)CC1, the Potency is reported as “inactive”. With CN(C)CCOC(c1ccc(Cl)cc1)c1ccccn1 (stereo not given) the Potency was “inactive”. For Nc1nc(-c2ccc([N+](=O)[O-])cc2)cs1, the Potency was “inactive”. For CN(C)c1ccc(C(=N)c2ccc(N(C)C)cc2)cc1, the Potency was inconclusive: 48.4 µM [cytotoxic, partial curve] and inconclusive: 18.8 µM [cytotoxic, full curve]. For CC(C(=O)O)c1ccc(C(=O)c2cccs2)cc1 (stereo not given), the Potency was “inactive”. In the case of Oc1ccc2c(c1)-c1ccccc1C2, the Potency is reported as inconclusive: 54.9 µM [cytotoxic, partial curve, poor fit]. With CC(=O)SC[C@@H](Cc1ccccc1)C(=O)NCC(=O)OCc1ccccc1 the Potency was inconclusive: 1.19 µM [cytotoxic, single point]. In the case of COc1cc2ncnc(Nc3ccc(F)c(Cl)c3)c2cc1OCCCN1CCOCC1, the Potency is reported as active: 29.8 µM. With O=C(O)c1cccc(C(F)(F)F)c1 the Potency was “inactive”. In the case of CCC(=O)O, the Potency is reported as inconclusive: 7.39 µM [cytotoxic, partial curve, poor fit]. With CN1CCCCC1CCN1c2ccccc2Sc2ccc(S(C)=O)cc21 (stereo not given) the Potency was inconclusive: 29.8 µM [cytotoxic, partial curve, poor fit]. In the case of CC[C@H]1OC(=O)[C@H](C)[C@@H](O[C@H]2C[C@@](C)(OC)[C@@H](O)[C@H](C)O2)[C@H](C)[C@@H](O[C@@H]2O[C@H](C)C[C@H](N(C)C)[C@H]2O)[C@](C)(O)C[C@@H](C)CN(C)[C@H](C)[C@@H](O)[C@]1(C)O, the Potency is reported as inconclusive: 5.15 µM [cytotoxic, partial curve, poor fit]. In the case of COC(=O)CCCCCCCC(=O)OC, the Potency is reported as inconclusive: 21.9 µM [cytotoxic, single point]. In the case of CCCc1c(OCCCOc2ccc(OCC(=O)O)cc2)ccc(C(C)=O)c1O, the Potency is reported as inconclusive: 49 µM [cytotoxic, partial curve, poor fit]. In the case of CCC(=O)Oc1ccc(/C(CC)=C(\CC)c2ccc(OC(=O)CC)cc2)cc1, the Potency is reported as active: 54.9 µM. With O=Cc1ccc(Cl)c([N+](=O)[O-])c1 the Potency was inconclusive: 38.9 µM [cytotoxic, partial curve, poor fit].
